Measured values as given in a collection of fitness landscapes (doi:10.1016/j.celrep.2020.107928).
Over roughly 81,000 sequences, “one-hybrid fitness for binding parS DNA” has its median near -0.17; the highest 2% begin near 0.51. Some of the results follow.

B1: Caulobacter ParB omega fusion; a variant is named by its letters at X, in order, B8GW30 (parent)
chain: MESVVVGEPGMSEGRRGLGRGLSALLGEVDAAPAQAPGEQLGGSREAPIEILQRNPDQPRRTFREEDLEDLSNSIREKGVLQPILVRPSPDTAGEYQIVAGERAWRAAQRAGLKTVPIMVRELDDLAVLEIGIIENVQRADLNVLEEALSYKVLMEKFERTQENIAQTIGKSXSHVANXMRLLXLPDEVQSYLVSGELTAXHARAIAAAADPVALAKQIIEGGLSVRETEALARKAPNLSAGKSKGGRPPRVKDTDTQALESDLSSVLGLDVSIDHRGSTGTLTITYATLEQLDDLCNRLTRGI

Variants of: B1
Test: one-hybrid fitness for binding parS DNA (scaled: cognate 1, non-cognate 0); higher = stronger binding
Conditions: with parS DNA site
Method in brief: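 In E. coli USO, a HIS3 reporter with its site placed 19 bp from the promoter was used to select Caulobacter ParB variants randomised at four specificity codons. Growth lasted 48 hours at 37°C on histidine-free M9 containing 0.1 mM IPTG and 5 mM 3-AT. Fitness was taken as the log change in variant-to-wild-type read ratio from Illumina sequencing of pre- and post-selection plasmids, rescaled between the non-cognate and cognate sites.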

Row | Variant | one-hybrid fitness for binding parS DNA
1 | AEVW | ≤ 0.2
2 | VSQC | ≤ 0.2
3 | QNFF | ≤ 0.2
4 | TKAY | ≤ 0.2
5 | LYKS | ≤ 0.2
6 | QFTV | ≤ 0.2
7 | NRKW | ≤ 0.2
8 | HTAK | ≤ 0.2
9 | RFMP | ≤ 0.2
10 | LEES | ≤ 0.2
11 | ANTR | ≤ 0.2
12 | VKWR | ≤ 0.2
13 | QNAC | ≤ 0.2
14 | DCQS | ≤ 0.2
15 | YKDS | ≤ 0.2
16 | WYSG | ≤ 0.2
17 | CSHT | ≤ 0.2
18 | MDVS | ≤ 0.2
19 | DLSI | ≤ 0.2
20 | KHRS | ≤ 0.2
21 | TPYC | ≤ 0.2
22 | YWGT | ≤ 0.2
23 | ILER | ≤ 0.2
24 | LHHS | ≤ 0.2
25 | FLCG | ≤ 0.2

Row | Variant | one-hybrid fitness for binding parS DNA
26 | ATME | ≤ 0.2
27 | SIGA | ≤ 0.2
28 | VVHT | ≤ 0.2
29 | HWVS | ≤ 0.2
30 | LTWY | ≤ 0.2
31 | SSQP | ≤ 0.2
32 | TMKC | ≤ 0.2
33 | QRDM | ≤ 0.2
34 | CVIR | ≤ 0.2
35 | VSFC | ≤ 0.2
36 | MSND | ≤ 0.2
37 | VQGS | ≤ 0.2
38 | VAMV | ≤ 0.2
39 | LVQT | ≤ 0.2
40 | KWRE | ≤ 0.2
41 | WCIG | ≤ 0.2
42 | RYPL | ≤ 0.2
43 | SASL | ≤ 0.2
44 | NNWC | ≤ 0.2
45 | RVFS | 1.03
46 | IYKT | ≤ 0.2
47 | FACK | 0.273
48 | LPNW | ≤ 0.2
49 | HVPK | ≤ 0.2
50 | CMYS | ≤ 0.2

Row | Variant | one-hybrid fitness for binding parS DNA
51 | SSCH | ≤ 0.2
52 | PPND | ≤ 0.2
53 | GYAL | ≤ 0.2
54 | PLRW | ≤ 0.2
55 | MPQR | ≤ 0.2
56 | RMTD | 0.207
57 | SVLK | ≤ 0.2
58 | HSMF | ≤ 0.2
59 | KRLI | ≤ 0.2
60 | WHDG | ≤ 0.2
61 | ESNP | ≤ 0.2
62 | TQMG | ≤ 0.2
63 | PHTE | ≤ 0.2
64 | YLPI | ≤ 0.2
65 | PLMV | ≤ 0.2
66 | MKLS | ≤ 0.2
67 | AGRC | ≤ 0.2
68 | LWYF | ≤ 0.2
69 | RAKD | ≤ 0.2
70 | QFHC | ≤ 0.2
71 | VNHL | ≤ 0.2
72 | VPQN | ≤ 0.2
73 | AMKL | ≤ 0.2
74 | YLSA | ≤ 0.2
75 | VKIY | ≤ 0.2

Row | Variant | one-hybrid fitness for binding parS DNA
76 | VTNI | ≤ 0.2
77 | KDSF | ≤ 0.2
78 | HCVG | ≤ 0.2
79 | ARYG | ≤ 0.2
80 | DNWE | ≤ 0.2
81 | KLSF | ≤ 0.2
82 | QTEP | ≤ 0.2
83 | MDVR | ≤ 0.2
84 | KTNK | ≤ 0.2
85 | CHPI | ≤ 0.2
86 | IWLD | ≤ 0.2
87 | QHKK | ≤ 0.2
88 | QWVR | ≤ 0.2
89 | KAKV | ≤ 0.2
90 | SHTR | ≤ 0.2
91 | FLSD | ≤ 0.2
92 | WSSD | ≤ 0.2
93 | ACKG | ≤ 0.2
94 | RAHG | 1.01
95 | RMWI | ≤ 0.2
96 | RKNH | ≤ 0.2
97 | APVG | ≤ 0.2
98 | ESCR | ≤ 0.2
99 | TVPR | ≤ 0.2
100 | PWMS | ≤ 0.2

Row | Variant | one-hybrid fitness for binding parS DNA
101 | KVNR | ≤ 0.2
102 | WYPF | ≤ 0.2
103 | FCSW | ≤ 0.2
104 | WCEG | 0.256
105 | SGSA | ≤ 0.2
106 | CSFF | ≤ 0.2
107 | LLLG | ≤ 0.2
108 | AMLD | ≤ 0.2
109 | EEHV | ≤ 0.2
110 | VAMR | ≤ 0.2
111 | QTMG | ≤ 0.2
112 | GIYC | ≤ 0.2
113 | AFFM | ≤ 0.2
114 | IIAV | ≤ 0.2
115 | SAEW | ≤ 0.2
116 | PMLR | ≤ 0.2
117 | QMNL | ≤ 0.2
118 | AMLY | ≤ 0.2
119 | HPYN | ≤ 0.2
120 | KKHM | ≤ 0.2
121 | YVIS | ≤ 0.2
122 | ESQL | ≤ 0.2
123 | VKVM | ≤ 0.2
124 | EYEL | ≤ 0.2
125 | IPTR | ≤ 0.2

Row | Variant | one-hybrid fitness for binding parS DNA
126 | KITF | ≤ 0.2
127 | SVLA | ≤ 0.2
128 | QLFL | ≤ 0.2
129 | FFTS | ≤ 0.2
130 | SHSL | ≤ 0.2
131 | KYKH | ≤ 0.2
132 | FSTC | ≤ 0.2
133 | YEPG | ≤ 0.2
134 | SAHQ | ≤ 0.2
135 | HTHS | ≤ 0.2
136 | EAVI | ≤ 0.2
137 | RNCH | ≤ 0.2
138 | YSKF | ≤ 0.2
139 | HRAH | ≤ 0.2
140 | NYTA | ≤ 0.2
141 | SLMG | ≤ 0.2
142 | TICG | ≤ 0.2
143 | DVAC | ≤ 0.2
144 | DRNF | ≤ 0.2
145 | DWQG | ≤ 0.2
146 | RRQS | 0.649
147 | QIMT | ≤ 0.2
148 | HCRT | ≤ 0.2
149 | PERS | ≤ 0.2
150 | YNNC | ≤ 0.2

Row | Variant | one-hybrid fitness for binding parS DNA
151 | DTII | ≤ 0.2
152 | HNFS | ≤ 0.2
153 | SKQA | ≤ 0.2
154 | IGHS | ≤ 0.2
155 | QCNN | ≤ 0.2
156 | WKAK | ≤ 0.2
157 | WTGR | ≤ 0.2
158 | CYKG | ≤ 0.2
159 | NPQT | ≤ 0.2
160 | TRWS | ≤ 0.2
161 | SYEG | ≤ 0.2
162 | TSSI | ≤ 0.2
163 | AEGC | ≤ 0.2
164 | LWRY | ≤ 0.2
165 | PRSM | ≤ 0.2
166 | YECT | ≤ 0.2
167 | SIRS | ≤ 0.2
168 | CRTR | ≤ 0.2
169 | WTRY | ≤ 0.2
170 | SRIE | ≤ 0.2
171 | RFGN | 0.435
172 | NPPL | ≤ 0.2
173 | PYGY | ≤ 0.2
174 | RCYF | 0.316
175 | CNPM | ≤ 0.2

Row | Variant | one-hybrid fitness for binding parS DNA
176 | RVDK | ≤ 0.2
177 | SGYT | ≤ 0.2
178 | NHYE | ≤ 0.2
179 | KERP | ≤ 0.2
180 | AMAG | ≤ 0.2
181 | IIFG | ≤ 0.2
182 | RQQT | 0.895
183 | GHFR | ≤ 0.2
184 | TQNS | ≤ 0.2
185 | QHRK | ≤ 0.2
186 | SQMT | ≤ 0.2
187 | PTEY | ≤ 0.2
188 | MRQS | ≤ 0.2
189 | WRYC | ≤ 0.2
190 | RCMI | ≤ 0.2
191 | YARK | ≤ 0.2
192 | PLGQ | ≤ 0.2
193 | LGEW | ≤ 0.2
194 | MTFS | ≤ 0.2
195 | PCWR | ≤ 0.2
